Assay results published in the supplement of paper PMC4967469.
IC50 is the fitted dose that halves viability relative to control wells, and lower means more sensitive; a fit beyond the top or the lowest dose is shown as a bound at that dose. AUC, from the same fit, is the share of area under the viability curve across the 256-fold dose range; values near 1 show little effect. For part of these data: Any top dose called inferred was derived from the fitted curves, not read from the paper. For part of these data: Drugs with an entry number were screened twice under separate entries, and the two screens often disagree.

Key:
Assay in all cases: Viability of human cancer cell lines after 72 h of drug (GDSC screen)
Docetaxel = compound: CC(=O)O[C@@]12CO[C@@H]1C[C@H](O)[C@@]1(C)C(=O)[C@H](O)C3=C(C)[C@@H](OC(=O)[C@H](O)[C@@H](NC(=O)OC(C)(C)C)c4ccccc4)C[C@@](O)([C@@H](OC(=O)c4ccccc4)[C@H]21)C3(C)C [Docetaxel]; conditions: top dose 0.0125 µM
Protocol: (§1)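 Human cancer cell lines in 384-well plates, medium with 10% serum, drug for 72 h over a 256-fold dose range (nine 2-fold or five 4-fold steps up to the top dose). Adherent lines were fixed and stained with the nucleic acid dye Syto60, suspension lines read with resazurin; signal relative to control wells, capped at 0 and 100%. One two-parameter sigmoid per drug and line, fitted in a mixed model over all curves with the slope shared within a line.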

AMG-706 = compound: CC1(C)CNc2cc(NC(=O)c3cccnc3NCc3ccncc3)ccc21 [AMG-706]; conditions: top dose 2 µM; top dose inferred
Protocol: as §1

Cyclopamine = compound: CC1=C2C[C@H]3[C@@H](CC=C4C[C@@H](O)CC[C@@]43C)[C@@H]2CC[C@]12O[C@@H]1C[C@H](C)CN[C@H]1[C@H]2C [Cyclopamine]; conditions: top dose 16 µM; top dose inferred
Protocol: as §1

JNK Inhibitor VIII = compound: CCOc1nc(NC(=O)Cc2cc(OC)ccc2OC)cc(N)c1C#N [JNK Inhibitor VIII]; conditions: top dose 10 µM; top dose inferred
Protocol: as §1

NSC-207895 = compound: CN1CCN(c2ccc([N+](=O)[O-])c3no[n+]([O-])c23)CC1 [NSC-207895]; conditions: top dose 20 µM; top dose inferred
Protocol: as §1

FTI-277 = compound: COC(=O)[C@H](CCSC)NC(=O)c1ccc(NC[C@@H](N)CS)cc1-c1ccccc1 [FTI-277]; conditions: top dose 1.024 µM; top dose inferred
Protocol: as §1

YM155 = compound: COCC[n+]1c2c(n(Cc3cnccn3)c1C)C(=O)c1ccccc1C2=O [YM155]; conditions: top dose 5.12 µM
Protocol: as §1

OSI-906 = compound: C[C@]1(O)C[C@@H](c2nc(-c3ccc4ccc(-c5ccccc5)nc4c3)c3c(N)nccn32)C1 [OSI-906]; conditions: top dose 2.56 µM; top dose inferred
Protocol: as §1

SB-715992 = compound: Cc1ccc(C(=O)N(CCCN)[C@@H](c2nc3cc(Cl)ccc3c(=O)n2Cc2ccccc2)C(C)C)cc1 [SB-715992]; conditions: top dose 0.128 µM; top dose inferred
Protocol: as §1

JQ1 = compound: Cc1sc2c(c1C)C(c1ccc(Cl)cc1)=N[C@@H](CC(=O)OC(C)(C)C)c1nnc(C)n1-2 [JQ1]
Protocol: as §1

Belinostat = compound: O=C(/C=C/c1cccc(S(=O)(=O)Nc2ccccc2)c1)NO [Belinostat]; conditions: top dose 20 µM; top dose inferred
Protocol: as §1

CGP-60474 = compound: OCCCNc1cc(-c2ccnc(Nc3cccc(Cl)c3)n2)ccn1 [CGP-60474]; conditions: top dose 0.256 µM; top dose inferred
Protocol: as §1

JNJ-26854165 = compound: c1ccc2c(CCNc3ccc(Nc4ccncc4)cc3)c[nH]c2c1 [JNJ-26854165]; conditions: top dose 10 µM
Protocol: as §1

[1] = top dose 1 µM, screen: GDSC drug entry 1218, top dose inferred
[2] = top dose 2.56 µM, screen: GDSC drug entry 163

| Cell Line | AUC (Docetaxel) | IC50 (Docetaxel) [nM] | AUC (AMG-706) | IC50 (AMG-706) [nM] | AUC (Cyclopamine) | IC50 (Cyclopamine) [nM] | AUC (JNK Inhibitor VIII) | IC50 (JNK Inhibitor VIII) [nM] | AUC (NSC-207895) | IC50 (NSC-207895) [nM] | AUC (FTI-277) | IC50 (FTI-277) [nM] | AUC (YM155) | IC50 (YM155) [nM] | AUC (OSI-906) | IC50 (OSI-906) [nM] | AUC (SB-715992) | IC50 (SB-715992) [nM] | AUC (JQ1; [1]) | IC50 (JQ1; [1]) [nM] | AUC (JQ1; [2]) | IC50 (JQ1; [2]) [nM] | AUC (Belinostat) | IC50 (Belinostat) [nM] | AUC (CGP-60474) | IC50 (CGP-60474) [nM] | AUC (JNJ-26854165) | IC50 (JNJ-26854165) [nM] |
| --- | --- | --- | --- | --- | --- | --- | --- | --- | --- | --- | --- | --- | --- | --- | --- | --- | --- | --- | --- | --- | --- | --- | --- | --- | --- | --- | --- | --- |
| NCI-H1694 (small cell lung carcinoma, suspension) | 0.956 | > 12.5 | 0.988 | > 2000 | 0.982 | > 16000 | 0.986 | > 10000 | 0.839 | 13500 | 0.989 | > 1020 | 0.072 | < 20 | 0.969 | > 2560 | 0.834 | 82.4 | 0.972 | > 1000 | 0.879 | > 2560 | 0.292 | 324 | 0.88 | > 256 | 0.963 | > 10000 |
| DG-75 (Burkitt lymphoma, suspension) | 0.792 | 5.74 | 0.973 | > 2000 | 0.976 | > 16000 | 0.963 | > 10000 | 0.987 | > 20000 | 0.985 | > 1020 | 0.066 | < 20 | 0.987 | > 2560 | 0.827 | 79.9 | 0.968 | > 1000 | 0.844 | 1870 | 0.476 | 1080 | 0.811 | 138 | 0.888 | > 10000 |
| NCI-H2135 (non-small cell lung carcinoma, adherent) | 0.99 | > 12.5 | 0.968 | > 2000 | 0.991 | > 16000 | 0.952 | > 10000 | 0.657 | 3360 | 0.972 | > 1020 | 0.029 | < 20 | 0.961 | > 2560 | 0.945 | > 128 | 0.99 | > 1000 | 0.703 | 583 | 0.258 | 260 | 0.805 | 125 | 0.99 | > 10000 |
| KM-H2 (Hodgkin lymphoma, suspension) | 0.993 | > 12.5 | 0.979 | > 2000 | 0.972 | > 16000 | 0.982 | > 10000 | 0.984 | > 20000 | 0.992 | > 1020 | 0.988 | > 5120 | 0.987 | > 2560 | 0.69 | 24.8 | 0.823 | 475 | 0.896 | 2300 | 0.993 | > 20000 | 0.87 | 179 | 0.954 | > 10000 |
| DND-41 (T-cell leukaemia, suspension) | 0.968 | > 12.5 | 0.99 | > 2000 | 0.975 | > 16000 | 0.989 | > 10000 | 0.954 | > 20000 | 0.96 | > 1020 | 0.447 | 234 | 0.947 | > 2560 | 0.667 | 21.9 | 0.989 | > 1000 | 0.591 | 274 | 0.18 | 160 | 0.62 | 32.8 | 0.868 | 7340 |
| SLVL (B-cell lymphoma, suspension) | 0.955 | > 12.5 | 0.986 | > 2000 | 0.981 | > 16000 | 0.986 | > 10000 | 0.924 | > 20000 | 0.974 | > 1020 | 0.034 | < 20 | 0.981 | > 2560 | 0.727 | 37 | 0.978 | > 1000 | 0.777 | 1090 | 0.139 | 83.6 | 0.692 | 57.3 | 0.913 | > 10000 |
| NB5 (neuroblastoma, adherent) | 0.874 | 12.5 | 0.985 | > 2000 | 0.987 | > 16000 | 0.966 | > 10000 | 0.987 | > 20000 | 0.984 | > 1020 | 0.736 | 1520 | 0.907 | > 2560 | 0.837 | 87.2 | 0.976 | > 1000 | 0.87 | 2440 | 0.686 | 4180 | 0.927 | > 256 | 0.961 | > 10000 |
| AM-38 (glioma, semi-adherent) | 0.875 | > 12.5 | 0.935 | > 2000 | 0.988 | > 16000 | 0.961 | > 10000 | 0.883 | > 20000 | 0.976 | > 1020 | 0.048 | < 20 | 0.954 | > 2560 | 0.78 | 53.8 | 0.987 | > 1000 | 0.986 | > 2560 | 0.341 | 448 | 0.962 | > 256 | 0.845 | 7420 |
| SUP-HD1 (Hodgkin lymphoma, suspension) | 0.945 | > 12.5 | 0.985 | > 2000 | 0.974 | > 16000 | 0.97 | > 10000 | 0.804 | 9470 | 0.983 | > 1020 | 0.063 | < 20 | 0.982 | > 2560 | 0.747 | 39.1 | 0.986 | > 1000 | 0.782 | 1020 | 0.274 | 296 | 0.615 | 32.6 | 0.962 | > 10000 |
